{"source": "the RNAGym collection of RNA variant scans (doi:10.7554/elife.90254)", "parents": {"B1": {"name": "LINE1-mini (parent)", "chain": "GGCAGAGCUCAACACAGCGUGGCAAAGUGGCUGUGGCUAGACUGCC"}}, "note": "Read counts are not given, so values of variants with three or more changes are uncertain."}
{"variants_of": "B1", "experiment": "self-cleavage, relative activity (ratio to wild type); higher = more cleavage; in vitro, sequencing; the parent is a self-cleaving ribozyme"}
{"variant": "GCCAGAGCUCGACACAGCGUGGGAAAGUGGCUGUGACUAGACUGCC", "note": "[G2C A11G C23G G36A]", "self-cleavage": 0.05}
{"variant": "GACAGAGCUCAACACAGCGUGGCAAAGAGCCUGUGGCUAGACUUCC", "note": "[G2A U28A G30C G44U]", "self-cleavage": 0.32}
{"variant": "GCCAGGGUUCAACACAGCGUGGCAAGGUGGCUGUGUCUAGACUGCC", "note": "[G2C A6G C8U A26G G36U]", "self-cleavage": 0.01}
{"variant": "GCCAGCGCUCAACACAGCGUGGCAAAGUGGCUGGGGCUAGAUUGCC", "note": "[G2C A6C U34G C42U]", "self-cleavage": 0.14}
{"variant": "GACAGAGCUCAACACAGCGGGGCAAAGUAGCUGUAGCUAGACUGCC", "note": "[G2A U20G G29A G35A]", "self-cleavage": 0.41}
{"variant": "GACAGAGCUCAACACAGCGGGGCAAAGGGGAUGUGGCUAGACUGUC", "note": "[G2A U20G U28G C31A C45U]", "self-cleavage": 0.06}
{"variant": "GCCCGAGCUCAACACAGCAUGUCUAAAUGGCUGUGGCCAGGCUGCC", "note": "[G2C A4C G19A G22U A24U G27A U38C A41G]", "self-cleavage": 0}
{"variant": "GCCAGAGCUCCACACAGCGUGGCAAAGUUGCUGUGGCUAGACUGCC", "note": "[G2C A11C G29U]", "self-cleavage": 0.02}
{"variant": "GCCAGAGCUCGACACAGCGAGGCAAAGUGGCUGUGGCUAAACUGCC", "note": "[G2C A11G U20A G40A]", "self-cleavage": 0.02}
{"variant": "GCCCGAGCUCAACACAGCGUGGCAAAGCGGCUGAGGCUAGACUGCC", "note": "[G2C A4C U28C U34A]", "self-cleavage": 0.05}
{"variant": "GCCAGUGCUAAACACAGCGUGUCAAAGUGGCUGUGGCUGGACUCCC", "note": "[G2C A6U C10A G22U A39G G44C]", "self-cleavage": 0.01}
{"variant": "GCCCGAGCUCAACACAGCGUCGCAAAGUGGCUGUGGCUAGACUGCC", "note": "[G2C A4C G21C]", "self-cleavage": 0.1}
{"variant": "GCCUGACCUCAACACAGCGUGGCAAAGUGGCUGUGGCUAGACUGCC", "note": "[G2C A4U G7C]", "self-cleavage": 0.05}
{"variant": "GACAGAGCUCAACACAGCGUGGCAAAGCGGCUGUGGCUAGACUGCA", "note": "[G2A U28C C46A]", "self-cleavage": 0.81}
{"variant": "GCCAGGGCUCAUCACAGCGUGGUAAAGUGGCUGUGCCUAGACUGCC", "note": "[G2C A6G A12U C23U G36C]", "self-cleavage": 0.05}
{"variant": "GCCCGAGCUCAACACAGGGUAGCAAAGUGGCUGUGGCUAGAGUGCC", "note": "[G2C A4C C18G G21A C42G]", "self-cleavage": 0.01}
{"variant": "GCCAGGGCUCAGCACAGCGUGGCAAAGUGGCUGUGGCAGGACUGCC", "note": "[G2C A6G A12G U38A A39G]", "self-cleavage": 0.03}
{"variant": "GCCAGGGCUUAACACAGCGUGGCAAACUGGCUGUGGCUAGACUGCA", "note": "[G2C A6G C10U G27C C46A]", "self-cleavage": 0.02}
{"variant": "GCCAGUGCCCAAAACAGCGUGGCAAAGUGGCUGUGGCUAGACUGCC", "note": "[G2C A6U U9C C13A]", "self-cleavage": 0.09}
{"variant": "GCCAGUGCUCAACACAGCGUGGCAAAGUGGCUGUGGCUAGACUCCC", "note": "[G2C A6U G44C]", "self-cleavage": 0.66}
{"variant": "GACAGAGCUCAACACAGCGUGGCAAAGUGGCUGAGGCUAGACGGCC", "note": "[G2A U34A U43G]", "self-cleavage": 0.03}
{"variant": "GACAGAGCUCAACACAGCGUGGCAAAGAGGCUGUGGCUAGACGGCC", "note": "[G2A U28A U43G]", "self-cleavage": 0.09}
{"variant": "GACAGAGCUCAACACAGCGGCGGAACGUGGCUGUGGCUAGACUGCC", "note": "[G2A U20G G21C C23G A26C]", "self-cleavage": 0.44}
{"variant": "GACAGAGCUCAACACAGCGGGGCAAAGUGGCUAUGGCUAAACUGCC", "note": "[G2A U20G G33A G40A]", "self-cleavage": 0.06}
{"variant": "GCCAGAGCUCUAAACAGCGUGGGAAAGUGGCUGUGGCUAGACUGCC", "note": "[G2C A11U C13A C23G]", "self-cleavage": 0.01}
{"variant": "GCCAGAGCUCCACACAGCGUGGCAAAGUGUCUGUGUCUAGACUGCC", "note": "[G2C A11C G30U G36U]", "self-cleavage": 0.02}
{"variant": "GCCAGGGCUCAACACAGCGUGGCAAAGGGGCUGUGGCUAAACUGCC", "note": "[G2C A6G U28G G40A]", "self-cleavage": 0.04}
{"variant": "GCCCGAGAUCAACACAGCGUGGCAAAGUGGCUGUGGCUAGACUAAC", "note": "[G2C A4C C8A G44A C45A]", "self-cleavage": 0.04}
{"variant": "GCCAGAGCUCUACACCGCGUGGCAGAGUGGCUGUGGCUGGUCUGCC", "note": "[G2C A11U A16C A25G A39G A41U]", "self-cleavage": 0}
{"variant": "GACAGAGCUCAACACAGCGCGGCCAAGUGGCUGUGGCUAGGCUGCC", "note": "[G2A U20C A24C A41G]", "self-cleavage": 0.15}
{"variant": "GCCAGUGCUCAACACAGCGUGGCAUUGUGGCUGUGGCUAGCCUGCC", "note": "[G2C A6U A25U A26U A41C]", "self-cleavage": 0.09}
{"variant": "GCCAGCGCUAAACACAGCGUGGCAAAGUGGCUGUGGUGAGACUGCC", "note": "[G2C A6C C10A C37U U38G]", "self-cleavage": 0}
{"variant": "GCCAGCGAUCAACACAACGUGGCAAAGUGGCUGUGGCUAGACUGCC", "note": "[G2C A6C C8A G17A]", "self-cleavage": 0.16}
{"variant": "GCCAGAGCUCUACACAGCGAGGCAAAGUGGCUGUGGCUAGACUGCA", "note": "[G2C A11U U20A C46A]", "self-cleavage": 0.01}
{"variant": "GCCGGAGCUCGACACAGCGUGGCAAAGUGGCUGUGGCUAGACUGCC", "note": "[G2C A4G A11G]", "self-cleavage": 0.01}
{"variant": "GCCAGGGCUCAACACAGCGUGGCAGAUUGGCUGUGGCUAGACUGCC", "note": "[G2C A6G A25G G27U]", "self-cleavage": 0.01}
{"variant": "GCCAGAGCUCGGCACAGCGUGGCAAAGUGGCGGUGGCUAGACUGCC", "note": "[G2C A11G A12G U32G]", "self-cleavage": 0.03}
{"variant": "GCCAGUGCUCAACACAGGGUGGCCAAGUGGCUGUGGCUGGACUGCC", "note": "[G2C A6U C18G A24C A39G]", "self-cleavage": 0.01}
{"variant": "GCCAGAGCUCGAAACAGCGUGGCAAAGUGGCUGUGGCUAGACUUCA", "note": "[G2C A11G C13A G44U C46A]", "self-cleavage": 0.01}
{"variant": "GCCGGAGCUCAACACAGCGUGGCAAAGUGUCUGUUGCUAGACUGGC", "note": "[G2C A4G G30U G35U C45G]", "self-cleavage": 0.1}
{"variant": "GACAGAGCGCAACACAGCGUGGCAAAGUGGCUGUGGCUAGACAGCC", "note": "[G2A U9G U43A]", "self-cleavage": 0.27}
{"variant": "GCCGGAGCUCAACACAGCGUGGCAAAGUGGCUGUGGCUAGAUUGCC", "note": "[G2C A4G C42U]", "self-cleavage": 0.07}
{"variant": "GCCAGCGCCCAACACAGCGUGGCGAAGUGGCUGUGGCUAGACUGCC", "note": "[G2C A6C U9C A24G]", "self-cleavage": 0.01}
{"variant": "GCCAGGGCUCAACACAGCGUGUCAAAGUGGCUUUGGCUAGACAGCC", "note": "[G2C A6G G22U G33U U43A]", "self-cleavage": 0.04}
{"variant": "GCCCGAGCUUAACACAGCGUGGCAAAGUGGCUGUGGCUAGACUGUC", "note": "[G2C A4C C10U C45U]", "self-cleavage": 0.04}
{"variant": "GACAGAGCUCAACACAGCGUGGCAAAGUGGCAGUGGCUAGACAGCC", "note": "[G2A U32A U43A]", "self-cleavage": 0.15}
{"variant": "GACAGAGCUCAACACAGCGUGGCAAAGUGGCAGUGGCUAGACCGCC", "note": "[G2A U32A U43C]", "self-cleavage": 0.28}
{"variant": "GCCAGCGCUCAACACAGCGAGGCAAAGUGGCUGUGGCUAUACUGAC", "note": "[G2C A6C U20A G40U C45A]", "self-cleavage": 0.01}
{"variant": "GCCCGAGCUCAACACAGCGUGGCAAAUUGGCUGUGGCUUGACUGCC", "note": "[G2C A4C G27U A39U]", "self-cleavage": 0.02}
{"variant": "GCCGGAGCUGAACACAGCGUGGCAAAGUGGCUGUGGCUAGACUGCC", "note": "[G2C A4G C10G]", "self-cleavage": 0.01}
{"variant": "GCCAGGGCUCAACACAGAGUGGCAAAGUGGCUGUUGCUAGACUGCC", "note": "[G2C A6G C18A G35U]", "self-cleavage": 0.06}
{"variant": "GCCAGCGCUCAACACAGCGUGGCAAAGUGGAUGUGGCUAGGCUGCC", "note": "[G2C A6C C31A A41G]", "self-cleavage": 0.03}
{"variant": "GCCGGAGCUCAACACAGCGUGGCAAAGUGGUUGUGGCGAGACUGCC", "note": "[G2C A4G C31U U38G]", "self-cleavage": 0.07}
{"variant": "GCCAGCGCUCACCACAGCGUGUAAAAGUGGCUGUGGCUAGACUGCC", "note": "[G2C A6C A12C G22U C23A]", "self-cleavage": 0.03}
{"variant": "GACAGAGCUCAACACAGCGUGGCAAAGUGGCUGUGGCGAUACUGCC", "note": "[G2A U38G G40U]", "self-cleavage": 0.17}
{"variant": "GCCUGAGCUCUACACAGCGUGGCAAAGUGGGUGUGGCUAGACUGCC", "note": "[G2C A4U A11U C31G]", "self-cleavage": 0.02}
